According to PubChem BioAssay AID504466 (National Center for Advancing Translational Sciences (NCATS), 2011):
In all, about 330,000 compounds went through this assay and about 4,200 (1.3%) were called active. This list was built around the results that the source calls inconclusive (neither active nor inactive); the mix of calls is not that of the screen. Calls follow the shape of the dose curve; as a rule, active = well fitted activation curve with a large enough effect; inconclusive = small, poorly fitted or top-dose-only effect; inactive = no such curve, though single readings can be large or run the other way. A potency beside an inconclusive call is a rough fit, not a confirmed value.

experiment: qHTS screen for small molecules that induce genotoxicity in human embryonic kidney (HEK293T) cells expressing luciferase-tagged ELG1; conditions: HEK293T ELG1-luciferase reporter, luminescence, 16 h; series mostly up to 46 µM; also: nearly all actives have a fitted effect of over 60% in size
Summary of the method: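 HEK293T cells expressing luciferase-tagged ELG1 were exposed to compound or DMSO vehicle for 16 hr at 37 °C and 5% CO2. Luciferase activity was then measured with ONE-Glo after 30 min at room temperature.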
Potency is read from the fitted curve at half-maximal effect; tags tell the direction and shape of the fitted curve.

SMILES	Potency
Cc1cc(NC(=O)CSc2nnc(-c3cccc(Cl)c3)o2)no1	inactive
COc1ccc(NC(=O)Nc2nnc(CC(=O)NCc3ccccc3)s2)cc1	inconclusive: 29.1 µM [activator, single point]
CC(/C=N/NC(=O)c1cccs1)=C\c1ccco1	active: 9.2 µM
COc1cc(/C=C2\SC(=S)N(NS(=O)(=O)c3ccc(C)cc3)C2=O)ccc1O	inactive
O=C(COc1ccccc1[N+](=O)[O-])N(Cc1cccc(Br)c1)C1CCS(=O)(=O)C1 (configuration not stated)	inactive
CN(C)S(=O)(=O)c1cccc(NC(=O)c2ccc(N3CCCC3=O)cc2)c1	inactive
Cc1cccc(CCNC(=O)c2cccc(N3CCCC3=O)c2)c1	inconclusive: 5.8 µM [activator, partial curve]
COc1ccc(NC(=O)c2ccc(-n3c(C)ccc3C)cc2)c(OC)c1	inconclusive: 29.1 µM [activator, partial curve, poor fit]
CCn1nnc2cc(C(=O)NCCc3ccccc3F)ccc21	inconclusive: 0.73 µM [activator, partial curve, poor fit]
O=c1oc(-c2ccc(Br)o2)nc2ccccc12	inconclusive: 23.1 µM [activator, partial curve, poor fit]
COc1cccc(OC)c1C(=O)NC(=S)Nc1ccc2c(c1)Cc1ccccc1-2	inactive
N#Cc1cc2sc3nnc(-c4ccncc4)n3c2cc1C#N	inconclusive: 29.1 µM [activator, partial curve, poor fit]
CC1=CN2C(=N)/C(=C\c3cn(CCCOc4ccccc4)c4ccccc34)C(=O)N=C2S1	inconclusive: 32.6 µM [activator, partial curve, poor fit]
C=CCc1c(C)nc(C)nc1N/N=C/c1ccccc1	inactive
COc1cccc(NC(=O)c2cc(-c3ccc(C)o3)nc3ccccc23)c1	inactive
CCOc1ccc(Br)cc1CN(CC)CC	inactive
CCSc1nc(N2CCOCC2)c2ccccc2n1	inconclusive: 23.1 µM [activator, single point]
CN(C)CCNC(=O)c1cc2c(=O)n(C)c3ccccc3c2n1C	inconclusive: 13 µM [activator, partial curve, poor fit]
CCC(NC(=O)OC(C)(C)C)C(=O)Oc1ccc2c3c(c(=O)oc2c1)CCC3 (configuration not stated)	inactive
Cn1c(=O)cc(OCCCC(=O)NC2CCCC2)c2ccccc21	inconclusive: 20.6 µM [activator, partial curve]
O=C(Nc1ccc2c(c1)oc1ccccc12)c1ccc(Br)o1	inconclusive: 10.3 µM [activator, partial curve]
O=C(CNC(=S)N(Cc1ccccc1)Cc1ccccc1F)NCc1ccc(Cl)cc1	inactive
O=C(NCc1ccncc1)Nc1ccc(F)cc1	inactive
Cc1cc(O)c(C(=O)Cc2csc(C)n2)c(O)c1	inconclusive: 18.3 µM [activator, partial curve, poor fit]

SMILES	Potency
O=C(Nc1cccnc1)c1cc(-c2ccc(Br)cc2)on1	active: 5.8 µM
Cn1cc(C(=O)Nc2ccc3c(c2)CCC3)cn1	inconclusive: 18.4 µM [activator, partial curve, poor fit]
Cc1ccc(C2Nc3ccccc3-c3nc4ccccc4n32)o1 (configuration not stated)	inconclusive: 14.6 µM [activator, partial curve, poor fit]
Nc1ccc2nc(-c3cccs3)[nH]c2c1	inconclusive: 23.1 µM [activator, partial curve, poor fit]
CC(C)c1nc(SCC(=O)N2CCc3ccccc32)n[nH]1	inconclusive: 20.6 µM [activator, partial curve, poor fit]
CCOc1ccc(NC(=O)CC2SC(=O)N(c3ccccc3)C2=O)cc1 (configuration not stated)	inactive
COC(=O)c1nn(-c2ccc3c(c2)CCN3C(C)=O)cc1O	inconclusive: 0.259 µM [activator, partial curve, poor fit]
COc1ccc(C(=O)NC(=O)Nc2cc(C)ccn2)cc1	inconclusive: 0.206 µM [activator, partial curve]
O=C(c1cccs1)N(C(=O)c1cccs1)c1ccc(Br)cn1	active: 2.06 µM
Fc1ccc2cc(-c3ccccc3)ncc2c1	inconclusive: 14.6 µM [activator, partial curve]
O=C(Nc1ccsc1C(=O)O)c1cccc(C(F)(F)F)c1	active: 16.4 µM
CCCCc1ccc(NC(=O)Nc2cccnc2)cc1	inconclusive: 16.4 µM [activator, single point]
Cc1ccc(SCn2nnc3ccccc3c2=O)c(C)c1	inconclusive: 23.1 µM [activator, partial curve]
O=C(COC(=O)c1ccccc1Cc1ccccc1)Nc1ccc(SC(F)F)cc1	inconclusive: 5.8 µM [activator, partial curve]
O=C(Nc1ccc(NC(=O)c2cccs2)c(Cl)c1)c1cccs1	inconclusive: 23.1 µM [activator, partial curve, poor fit]
COc1ccc(COCC(O)CN2CCC(CN3C(=O)c4cccc5cccc(c45)C3=O)CC2)cc1OC (configuration not stated)	inactive
COc1cccc(C(=O)O/N=C(\N)c2ccncc2)c1	inconclusive: 16.4 µM [activator, partial curve]
COc1nc(NCCO)nc(Nc2ccccc2F)n1	inconclusive: 6.51 µM [activator, full curve, poor fit]
Cc1ccc(-n2nc3c(c2NC(=O)C(C)(C)C)CS(=O)(=O)C3)cc1	inactive
c1ccc(Sc2ncnc3c2oc2ccccc23)nc1	inconclusive: 3.16 µM [activator, partial curve, poor fit]
O=C(/C=C/c1ccc(Cl)cc1Cl)c1ccc[nH]1	inconclusive: 23.1 µM [activator, single point]
CC(C)n1nnnc1SCC(=O)Nc1ccc2c(c1)OCCO2	inconclusive: 23.1 µM [activator, single point]
CCc1ccccc1NC(=O)CN1CCN(C(=O)CNC(=O)c2ccc(-c3ccccc3)cc2)CC1	inactive
